In PubChem BioAssay AID1159614 (National Center for Advancing Translational Sciences (NCATS), 2016):
Out of some 45,000 compounds screened, about 65 (0.1%) were called active. Calls follow the shape of the dose curve; as a rule, active = well fitted activation curve with a large enough effect; inconclusive = small, poorly fitted or top-dose-only effect; inactive = no such curve, though single readings can be large or run the other way. The list shows a part of the results.

What follows are molecules tested against Galactocerebrosidase (Homo sapiens) (UniProt P54803) (assay: A Novel Cell-Based Assay to Identify Small Molecules for B -Galactocerebrosidase). Settings: 145M-Twi-hGALC-G270D cells (Twitcher mouse brain line with human GALC G270D), HMU-beta-Gal fluorescence, 48 h; series mostly up to 57.5 µM; activation: at the top concentration.
Method in brief: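 Mutant human GALC (G270D), stably expressed in a Twitcher mouse brain cell line lacking endogenous GALC, is measured in live-treated cells via 6-hexadecanoylamino-4-methylumbelliferyl-β-galactoside hydrolysis (0.1 mM final, pH 5.2) with fluorescent detection.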
Also: 0% is about no effect; nearly all actives have a fitted effect of over 65% in size.

Sequence of UniProt P54803 (P54803 whole entry, looked up): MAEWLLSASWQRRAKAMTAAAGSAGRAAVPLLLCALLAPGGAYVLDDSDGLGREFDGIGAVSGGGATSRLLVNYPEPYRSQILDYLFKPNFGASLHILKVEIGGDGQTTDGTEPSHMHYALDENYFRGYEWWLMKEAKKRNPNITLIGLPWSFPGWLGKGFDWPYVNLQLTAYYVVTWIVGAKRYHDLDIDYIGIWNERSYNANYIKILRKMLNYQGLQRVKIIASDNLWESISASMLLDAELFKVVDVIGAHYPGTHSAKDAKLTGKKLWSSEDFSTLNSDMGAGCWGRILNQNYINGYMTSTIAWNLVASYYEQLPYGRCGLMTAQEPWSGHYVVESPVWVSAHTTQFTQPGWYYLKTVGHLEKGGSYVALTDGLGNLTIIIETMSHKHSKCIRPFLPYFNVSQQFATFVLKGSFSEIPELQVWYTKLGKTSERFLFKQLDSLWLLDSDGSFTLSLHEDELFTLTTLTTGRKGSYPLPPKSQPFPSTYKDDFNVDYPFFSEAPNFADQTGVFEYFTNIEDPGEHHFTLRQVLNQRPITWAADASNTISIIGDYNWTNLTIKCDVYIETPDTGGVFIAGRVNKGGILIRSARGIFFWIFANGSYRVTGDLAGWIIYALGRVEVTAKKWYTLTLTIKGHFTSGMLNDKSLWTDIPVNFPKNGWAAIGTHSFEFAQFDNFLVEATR

activation, inactive:
COc1ccccc1CCNC(=O)Cc1c(C)c2cc(Cl)c(O)cc2oc1=O -22.8%, CC(C)c1ccc(S(=O)(=O)N2CCN(Cc3cccc(F)c3)CC2)cc1 -1.25%, CCCCOc1ccccc1C1CC(=O)Nc2ccc3ccccc3c21 (configuration not stated) -15.9%, Cc1ccc(N(C)C(=O)c2sc3nc4n(c(=O)c3c2C)CCCC4)cc1C -14.6%, COc1ccc(NC(=O)CSc2ncc3c(n2)-c2ccccc2N(Cc2ccc(C)cc2)S3(=O)=O)cc1Cl 5.6%, CN(C)CC[C@@H](c1ccc(Cl)cc1)c1ccccn1 -4.08%, COCCCn1c(=O)c2sccc2n2c(CCCC(=O)NCc3cccc(OC)c3)nnc12 3.16%, CCOc1ccc(-c2cccc(NS(=O)(=O)c3ccc(C)s3)c2)nn1 -15.8%, CCCCN(CC)C(=O)CSc1nc2n[nH]c(C)c2c(=N)n1-c1ccc(CC)cc1 -13.4%, CCOC(=O)C1CCN(C(=O)c2cc3sc(C)cc3n2C)CC1 -9.5%, O=C(CCC1N=C2c3ccccc3N=C(SCC(=O)Nc3cccc(Cl)c3)N2C1=O)NCc1ccco1 (configuration not stated) -15.6%, NC(=O)C1CCN(S(=O)(=O)c2cc3c(cc2Cl)NC(=O)CO3)CC1 -12.1%, CCOc1ccc(NS(=O)(=O)c2c(C)nc3sc(C)c(C)n3c2=O)cc1 -4.96%, CCOC(=O)C1CCN(C(=O)c2ccccc2NC(=O)c2nsc3ccccc23)CC1 8.74%, O=C(CSc1ncc(-c2ccccc2)[nH]1)Nc1ccccc1 -12.1%, CCN1C(=O)c2ccccc2S(=O)(=O)c2ccc(C(=O)NCc3ccccc3)cc21 -11%, Cc1nc2nc(NC(=O)c3ccc(C(C)(C)C)cc3)[nH]n2c(=O)c1C -9.15%, CCCCOc1ccc(C(=O)Nc2ccc3c(c2)CCCN3C(=O)c2cccs2)cc1 -21.4%, CCOC(=O)C1CCC(CN(Cc2ccc(Cl)cc2)S(=O)(=O)c2cccc(Cl)c2C)CC1 (configuration not stated) -13.2%, Cc1nn(C(=O)c2c(F)cccc2F)c(C)c1S(=O)(=O)N1CCCCCC1 -6.04%, CCCc1nnc(NC(=O)Nc2ccccc2Cl)s1 -15%, Cc1nc2nc(C)c(NS(=O)(=O)c3ccc(CC(C)C)cc3)c(=O)n2[nH]1 -9.02%, CCOc1ccc(OCC)c(NC(=O)C2CCCN(S(=O)(=O)c3cc(Br)cc4c3N(C(=O)CC)CC4)C2)c1 (configuration not stated) -2.72%, Cn1c(=O)c2c(-c3ccccc3)n(CCCO)cc2n(C)c1=O -13.5%, COc1ccc(NC(=O)Cn2cc(C(=O)c3ccccc3OC)c(=O)c3ccc(C)nc32)cc1OC 4.37%, CCn1c(CN2CCOCC2)nc2cc(NC(=O)c3cccc([N+](=O)[O-])c3)ccc21 -23.9%, COc1ccc(C)cc1NC(=O)c1nnn(-c2c(C)cccc2C)c1C -6.44%, CC(=O)Nc1nnc2n1CCS2 2.9%, Cc1ccc(CN2CCC(CNC(=O)Nc3ccc(C)c(C)c3)C2)cc1 (configuration not stated) -17%, CCCCc1ccc2nc(NC(=O)OC)[nH]c2c1 -13.8%, CC(C)N(C(=O)Cn1cc(SCC(=O)Nc2ccccc2C(F)(F)F)c2ccccc21)C(C)C 7.3%, CCOc1ccc(C2C(C(=O)Nc3ccccc3C)=C(C)Nc3nnnn32)cc1 (configuration not stated) -18.8%, CC(N)C12CC3CC(CC(C3)C1)C2 (configuration not stated) -8.22%, Cc1ccc(C)c(NC(=O)/C(C#N)=C/c2ccc(C(C)C)cc2)c1 -19.4%, COc1ccc(C)cc1NC(=O)c1oc2ccc(S(=O)(=O)N3CCC4(CC3)OCCO4)cc2c1C -7.52%, CCOCCn1cnc2sc(C(=O)Nc3ccccc3C(=O)OC)c(C)c2c1=O -17.2%, O=C(Cn1ccc2cc(S(=O)(=O)N3CCCCC3)ccc21)NCc1ccccc1Cl -18.6%, Cn1c(=O)c2c(c3ccccc31)OC(=O)CC2c1cccc(Cl)c1 (configuration not stated) 3.08%, COc1ccccc1/C=C/c1nc(C#N)c(NCC(C)C)o1 -2.35%, COc1cc(NC(=O)CN2Cc3ccccc3C2=O)cc(OC)c1OC -9.73%, Cc1ccc(-c2nc(CCNC(=O)C(=O)Nc3c(C)cccc3C)cs2)cc1 -11.5%, CCCN(CCC)C(=O)c1nn(C)c2c1CSc1ccc(C)cc1-2 -17.6%, CC(C)Cn1c(=O)c2ccccc2n2c(CCC(=O)Nc3ccc(F)cc3)nnc12 -5.49%, Cc1c(C(=O)NCCO)[n+](=O)c2ccccc2n1[O-] -5.15%, CCOc1cccc(CC(=O)N2CCc3c([nH]c4ccccc34)C2c2ccc(SC)cc2)c1OCC (configuration not stated) -8.9%, COc1ccc(N2C(=O)CSC23C(=O)N(Cc2ccc(C)cc2)c2ccccc23)cc1Cl (configuration not stated) -39.3%, CCOc1ccc(NC(=O)Cn2nc(Cc3ccncc3)c3ccccc3c2=O)cc1 17.8%, COc1ccc(C(=O)c2oc3ccccc3c2NC(=O)c2cccc(OC)c2)cc1 -3.2%, CCOC(=O)c1cc(-c2ccccc2)n(CCCC(=O)Nc2ccccc2C)c1C -18.9%, COc1ccc(-n2ccnc(NCc3ccccc3Cl)c2=O)cc1OC 2.51%, COc1ccc(CNC(=O)C(CC(C)C)N2Cc3ccccc3C2=O)cc1 (configuration not stated) -8.92%, CCN(CC)CCOC(=O)c1ccc(Nc2c3c(nc4ccccc24)CCC3)cc1 -14.9%, CC(C)CN(CCNC(=O)c1cc(-c2cccs2)nc2ccccc12)CC(C)C -5.83%, CCOc1ccccc1CNC(=O)c1cnc2sc(N(CC)CC)nn2c1=O -24.9%, Cc1ccc2nc(COc3cccc(NC(=O)c4ccccc4Cl)c3)cc(=O)n2c1 -12.6%, CCN(CC)CCOC(=O)c1ccc(NC(=O)c2cc3c(s2)-c2ccccc2OC3)cc1 4.25%, Cc1nc(-c2ccc(S(=O)(=O)Nc3ccc(Cl)c(C(F)(F)F)c3)cc2)co1 10.1%, Clc1cccc(C2=NC(c3cccs3)=Nc3ccc(Br)cc3N2)c1 -6.3%, CCc1ccc(NC(=O)CN2C(=O)c3ccccc3Sc3ccc(C(=O)N4CCCC4)cc32)cc1 -0.892%, COc1ccc(CNC(=O)c2sc3nc4n(c(=O)c3c2C)CCCCC4)cc1 -12%, COc1cccc(C(=O)CC2(O)C(=O)N(Cc3ccccc3)c3ccccc32)c1 (configuration not stated) -22.8%, NC(=O)Cn1c(=O)n(CCCCCC(=O)NCc2ccc3c(c2)OCO3)c(=O)c2sccc21 -21.9%, COc1ccc(-c2c(C)c3cc(OC(=O)N4CCOCC4)ccc3oc2=O)cc1OC -9.86%, CC(CNC(=O)c1ccc(Cn2c(=O)c3cccn3c3cccnc32)cc1)c1ccccc1 (configuration not stated) -9.34%, COc1cc(CNC(=O)c2ccc3nc(Cc4ccccc4)oc3c2)cc(OC)c1OC -4.79%, Cc1ccccc1CS(=O)(=O)Cc1ccc(C(=O)NCCc2ccc(Cl)cc2)o1 -12.9%, CCOC(=O)C1CCCN(c2c(C(=O)c3ccccc3)cnc3ccc(F)cc23)C1 (configuration not stated) -23%, Cc1cn2c(=O)cc(COC(=O)c3ccc(NC(=O)c4ccccc4C)cc3)nc2s1 1.59%, COc1ccc2c(c1)c1c(c(=O)n(-c3ccc(OC)c(OC)c3)c(=O)n1Cc1ccc(F)cc1)n2C -20.2%, CCc1cccc(NC(=O)Cn2c(=O)n3nc(-c4cccc(F)c4)nc3c3ccccc32)c1 -19.1%, COc1cccc(Cn2nnc(C(=O)NCc3ccc(Cl)cc3Cl)c2N)c1 -5.54%, CCOc1cc2[nH]c(=O)n(CCCCC(=O)N3CCN(c4ccccc4OC)CC3)c(=O)c2cc1OCC -11.9%, COc1ccc(NC(=O)c2nnn(CC(=O)Nc3ccc(C)c(C)c3)c2N)cc1OC -23.6%, Cc1ccccc1C(=O)Nc1sc2c(c1C(=O)N1CCC(C)CC1)CCC(C)C2 (configuration not stated) -16.9%, Cc1ccc(Cn2c(=O)c3cccnc3n(Cc3ccc(C)cc3)c2=O)cc1 -15.5%, O=C(CN1C(=O)COc2ccc(S(=O)(=O)N3CCCCCC3)cc21)N1CCN(c2ccc(F)cc2)CC1 -17.6%, COc1ccc(-c2cc3nc(C)c(CCC(=O)NCCc4ccc(Cl)cc4)c(C)n3n2)c(OC)c1 3.51%, Cc1ccc(CSc2ncc(Cl)c(C(=O)Oc3ccccc3F)n2)cc1 -11.4%, Cc1cn(C)c(CC(=O)Nc2cccc(C#N)c2)c1C(=O)O -0.439%, Cc1ccc(Cn2c(=O)n(-c3cccc(C(F)(F)F)c3)c(=O)c3c(C)c(C)sc32)c(C)c1 -15.2%, Cc1ccccc1NC(=O)COc1ccc2oc3c(c2c1)CCCC3 -15.9%, CCOC(=O)N1CCC(NC(=O)c2cnn(-c3ccc(OC)cc3)c2C2CCN(C(=O)OC(C)(C)C)CC2)CC1 -3%, Clc1ccc(-c2noc3ncnc(NC4CCCCC4)c23)cc1 0.531%, Cc1ccc(CCNC(=O)c2cnc3c(-c4ccc(F)cc4)c(C)nn3c2C)cc1 -2.64%, COc1ccc(OC)c(C2CC(=O)c3c([nH]c(C(=O)OCc4ccc(C)cc4)c3C)C2)c1 (configuration not stated) -13.9%, Cc1ccccc1OCCn1cc(C(=O)c2ccco2)c2ccccc21 -20%, Cc1ccc(-c2nn3c(=O)cc(CN4CCN(C(=O)Nc5cccc(C(F)(F)F)c5)CC4)nc3s2)cc1 0.492%, Cc1ccc(-c2c(C(=O)N3CCN(c4ccc(F)cc4)CC3)oc(=O)c3ccccc23)cc1 -1.67%, Cc1cc(C)cc(N2C(=O)N(Cc3cc(=O)n4ccccc4n3)c3ccccc3S2(=O)=O)c1 -22.4%, COc1cc(OC)c(OC)cc1CN1CCc2nc(N3CCN(C)CC3)ncc2C1 -14.5%, CCc1nn(CC(=O)NCc2ccc(C)cc2)c(=O)c2cc3occc3n12 -19.7%, CCOc1ccc(CN2CCN(Cc3ccc4c(c3)c3ccccc3n4CC)CC2)cc1 -23.2%, O=C(CCn1c(=O)c2ccccc2n(Cc2cccc(F)c2)c1=O)NCc1ccc2c(c1)OCO2 -7.16%, Cc1cccc2c1-c1sc(C(=O)NCCCN3CCN(c4ccccc4F)CC3)cc1CO2 -16%, COc1ccc(N2CCN(c3nc4ccc(C(=O)c5ccccc5)cc4n4cnnc34)CC2)cc1 -14.5%, COc1ccc(C(=O)Nc2ccc3nc4c(c(Nc5ccccc5OC)c3c2)CCCC4)c(OC)c1 -8.1%, CCCCN(CC)C(=O)c1c[nH]c2ccc(S(=O)(=O)N(C)c3ccc(Cl)cc3)cc2c1=O 7.94%
